# According to the supplement of paper PMC8728848:
# This is one part of the list.
# B1: Banana lectin (Musa acuminata) (protein)
# chain: MNGAIKVGAWGGNGGSAFDMGPAYRIISVKIFSGDVVDGVDVTFTYYGKTETRHYGGSGGTPHEIVLQEGEYLVGMAGEVANYTGAVVLGKLGFSTNKKAYGPFGNTGGTPFSLPIAAGKISGFFGRGGKFLDAIGVYLEPLEHHHHHH
# Key:
# Test in all cases: glycan array binding signal (z-score within array); higher = stronger binding
# Details in all cases: glycan notation: IUPAC condensed, linker removed; mutation: H84T
# [1] = molecular target: GlcNAc(b1-4)GlcNAc(b1-4)GlcNAc(b1-4)GlcNAc(b1-4)GlcNAc
# In short: (§1)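 From the Consortium for Functional Glycomics database, 3228 arrays were curated, keeping only those whose protein sequence was available. Binding is given as a within-array Z-score averaged across arrays sharing a protein sequence and across linkers. Negative Z-scores can be read as non-binding.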
# [2] = molecular target: GlcNAc(b1-4)GlcNAc(b1-4)GlcNAc(b1-4)GlcNAc(b1-4)GlcNAc(b1-4)GlcNAc
# In short: as §1
# [3] = molecular target: GlcNAc(b1-4)[GlcNAc(b1-6)]GalNAc
# In short: as §1
# [4] = molecular target: GlcNAc(b1-6)Gal(b1-4)GlcNAc
# In short: as §1
# GlcNAc(b1-6)GalNAc = molecular target: GlcNAc(b1-6)GalNAc
# In short: as §1
# [5] = molecular target: GlcNAc6S(b1-3)Gal(b1-4)GlcNAc
# In short: as §1
# Kdn(a2-3)Gal(b1-3)GalNAc = molecular target: Kdn(a2-3)Gal(b1-3)GalNAc
# In short: as §1
# Kdn(a2-3)Gal(b1-3)GlcNAc = molecular target: Kdn(a2-3)Gal(b1-3)GlcNAc
# In short: as §1
# Kdn(a2-3)Gal(b1-4)Glc = molecular target: Kdn(a2-3)Gal(b1-4)Glc
# In short: as §1
# Kdn(a2-3)Gal(b1-4)GlcNAc = molecular target: Kdn(a2-3)Gal(b1-4)GlcNAc
# In short: as §1
# [6] = molecular target: Kdn(a2-3)Gal(b1-4)[Fuc(a1-3)]GlcNAc
# In short: as §1
# Kdn(a2-6)Gal(b1-4)GlcNAc = molecular target: Kdn(a2-6)Gal(b1-4)GlcNAc
# In short: as §1
# [7] = molecular target: Man(a1-2)Man(a1-2)Man(a1-3)Man
# In short: as §1
# [8] = molecular target: Man(a1-2)Man(a1-2)Man(a1-6)[Man(a1-3)]Man
# In short: as §1
# Man(a1-2)Man(a1-3)Man = molecular target: Man(a1-2)Man(a1-3)Man
# In short: as §1
# [9] = molecular target: Man(a1-2)Man(a1-3)[Man(a1-2)Man(a1-6)]Man
# In short: as §1
# [10] = molecular target: Man(a1-2)Man(a1-3)[Man(a1-2)Man(a1-6)]Man(a1-6)[Man(a1-2)Man(a1-2)Man(a1-3)]Man
# In short: as §1
# [11] = molecular target: Man(a1-2)Man(a1-3)[Man(a1-2)Man(a1-6)]Man(a1-6)[Man(a1-2)Man(a1-2)Man(a1-3)]Man(b1-4)GlcNAc(b1-4)GlcNAc
# In short: as §1
# [12] = molecular target: Man(a1-2)Man(a1-3)[Man(a1-6)]Man(a1-6)[Man(a1-2)Man(a1-3)]Man(b1-4)GlcNAc(b1-4)GlcNAc
# In short: as §1
# [13] = molecular target: Man(a1-2)Man(a1-6)[Man(a1-3)]Man(a1-6)[Man(a1-2)Man(a1-2)Man(a1-3)]Man
# In short: as §1
# [14] = molecular target: Man(a1-2)Man(a1-6)[Man(a1-3)]Man(a1-6)[Man(a1-2)Man(a1-2)Man(a1-3)]Man(b1-4)GlcNAc(b1-4)GlcNAc
# In short: as §1
# Man(a1-3)[Man(a1-6)]Man = molecular target: Man(a1-3)[Man(a1-6)]Man
# In short: as §1
# [15] = molecular target: Man(a1-3)[Man(a1-6)]Man(a1-6)[Man(a1-2)Man(a1-3)]Man(b1-4)GlcNAc(b1-4)GlcNAc
# In short: as §1
# [16] = molecular target: Man(a1-3)[Man(a1-6)]Man(a1-6)[Man(a1-3)]Man
# In short: as §1
# [17] = molecular target: Man(a1-3)[Man(a1-6)]Man(a1-6)[Man(a1-3)]Man(b1-4)GlcNAc(b1-4)GlcNAc
# In short: as §1
# [18] = molecular target: Man(a1-3)[Man(a1-6)]Man(b1-4)GlcNAc(b1-4)GlcNAc
# In short: as §1
# [19] = molecular target: Man(a1-3)[Man(a1-6)]Man(b1-4)GlcNAc(b1-4)[Fuc(a1-6)]GlcNAc
# In short: as §1
# Man(a1-6)Man = molecular target: Man(a1-6)Man
# In short: as §1
# Man(b1-4)GlcNAc = molecular target: Man(b1-4)GlcNAc
# In short: as §1
# MurNAc(b1-4)GlcNAc = molecular target: MurNAc(b1-4)GlcNAc
# In short: as §1
# Neu5Ac(a2-3)Gal = molecular target: Neu5Ac(a2-3)Gal
# In short: as §1
# [20] = molecular target: Neu5Ac(a2-3)Gal(b1-3)GalNAc
# In short: as §1
# [21] = molecular target: Neu5Ac(a2-3)Gal(b1-3)GalNAc(b1-3)Gal(a1-4)Gal(b1-4)Glc
# In short: as §1
# [22] = molecular target: Neu5Ac(a2-3)Gal(b1-3)GalNAc(b1-4)Gal(b1-4)Glc
# In short: as §1
# [23] = molecular target: Neu5Ac(a2-3)Gal(b1-3)GalNAc(b1-4)[Neu5Ac(a2-3)]Gal(b1-4)Glc
# In short: as §1
# [24] = molecular target: Neu5Ac(a2-3)Gal(b1-3)GalNAc(b1-4)[Neu5Ac(a2-8)Neu5Ac(a2-3)]Gal(b1-4)Glc
# In short: as §1
# [25] = molecular target: Neu5Ac(a2-3)Gal(b1-3)GalNAc6S
# In short: as §1
# [26] = molecular target: Neu5Ac(a2-3)Gal(b1-3)GlcNAc
# In short: as §1
# [27] = molecular target: Neu5Ac(a2-3)Gal(b1-3)GlcNAc(b1-2)Man
# In short: as §1
# [28] = molecular target: Neu5Ac(a2-3)Gal(b1-3)GlcNAc(b1-2)Man(a1-3)[GlcNAc(b1-4)][Neu5Ac(a2-3)Gal(b1-3)GlcNAc(b1-2)Man(a1-6)]Man(b1-4)GlcNAc(b1-4)GlcNAc
# In short: as §1
# [29] = molecular target: Neu5Ac(a2-3)Gal(b1-3)GlcNAc(b1-2)Man(a1-3)[Neu5Ac(a2-3)Gal(b1-3)GlcNAc(b1-2)Man(a1-6)]Man(b1-4)GlcNAc(b1-4)GlcNAc
# In short: as §1
# [30] = molecular target: Neu5Ac(a2-3)Gal(b1-3)GlcNAc(b1-2)[Neu5Ac(a2-3)Gal(b1-3)GlcNAc(b1-4)]Man(a1-6)[Neu5Ac(a2-3)Gal(b1-3)GlcNAc(b1-2)Man(a1-3)]Man(b1-4)GlcNAc(b1-4)GlcNAc
# In short: as §1
# [31] = molecular target: Neu5Ac(a2-3)Gal(b1-3)GlcNAc(b1-3)Gal(b1-3)GlcNAc
# In short: as §1
# [32] = molecular target: Neu5Ac(a2-3)Gal(b1-3)GlcNAc(b1-3)Gal(b1-4)GlcNAc
# In short: as §1
# [33] = molecular target: Neu5Ac(a2-3)Gal(b1-3)GlcNAc(b1-3)GalNAc
# In short: as §1
binder,measurement,setting,value
B1,glycan array binding signal (z-score),[1],-0.168
same,glycan array binding signal (z-score),[2],-0.17
same,glycan array binding signal (z-score),[3],-0.196
same,glycan array binding signal (z-score),[4],-0.187
same,glycan array binding signal (z-score),GlcNAc(b1-6)GalNAc,-0.202
same,glycan array binding signal (z-score),[5],-0.199
same,glycan array binding signal (z-score),Kdn(a2-3)Gal(b1-3)GalNAc,-0.176
same,glycan array binding signal (z-score),Kdn(a2-3)Gal(b1-3)GlcNAc,-0.117
same,glycan array binding signal (z-score),Kdn(a2-3)Gal(b1-4)Glc,-0.166
same,glycan array binding signal (z-score),Kdn(a2-3)Gal(b1-4)GlcNAc,-0.189
same,glycan array binding signal (z-score),[6],-0.194
same,glycan array binding signal (z-score),Kdn(a2-6)Gal(b1-4)GlcNAc,-0.179
same,glycan array binding signal (z-score),[7],0.713
same,glycan array binding signal (z-score),[8],8.2
same,glycan array binding signal (z-score),Man(a1-2)Man(a1-3)Man,1.68
same,glycan array binding signal (z-score),[9],2.21
same,glycan array binding signal (z-score),[10],7.07
same,glycan array binding signal (z-score),[11],5.46
same,glycan array binding signal (z-score),[12],4.86
same,glycan array binding signal (z-score),[13],5.72
same,glycan array binding signal (z-score),[14],10.1
same,glycan array binding signal (z-score),Man(a1-3)[Man(a1-6)]Man,6.01
same,glycan array binding signal (z-score),[15],11.3
same,glycan array binding signal (z-score),[16],-0.185
same,glycan array binding signal (z-score),[17],5.96
same,glycan array binding signal (z-score),[18],4.6
same,glycan array binding signal (z-score),[19],1.98
same,glycan array binding signal (z-score),Man(a1-6)Man,-0.153
same,glycan array binding signal (z-score),Man(b1-4)GlcNAc,-0.198
same,glycan array binding signal (z-score),MurNAc(b1-4)GlcNAc,-0.179
same,glycan array binding signal (z-score),Neu5Ac(a2-3)Gal,-0.212
same,glycan array binding signal (z-score),[20],-0.193
same,glycan array binding signal (z-score),[21],-0.151
same,glycan array binding signal (z-score),[22],-0.131
same,glycan array binding signal (z-score),[23],-0.192
same,glycan array binding signal (z-score),[24],-0.184
same,glycan array binding signal (z-score),[25],-0.156
same,glycan array binding signal (z-score),[26],-0.161
same,glycan array binding signal (z-score),[27],-0.207
same,glycan array binding signal (z-score),[28],-0.154
same,glycan array binding signal (z-score),[29],-0.212
same,glycan array binding signal (z-score),[30],0.018
same,glycan array binding signal (z-score),[31],-0.183
same,glycan array binding signal (z-score),[32],-0.183
same,glycan array binding signal (z-score),[33],-0.181
